Experimental data: paper PMC12136788
The list shows a part of the results.

B1: chrX:100644401:100644502:+|5pUTR|ENSG00000102359|unk|total|mutant (ssRNA)
RNA: GGGAGUUCUACAGUCCGACGAUCUUAACAGAAUCCCGGAGGCCGGGACAGACCAGGAGCCACUCGUUCCCGGAAUGUUAAAGCCGAAGGUUUUUUCCAAUUGAUGAGAGGAGCAGAGAGGAAGGAGAAAGAGGAGGAGAGAGACAACAGAGGAUUGAGCAUCA
B2: chr6:109481629:109481730:-|CDS|ENSG00000112365|unk|FALSE|unique (ssRNA)
RNA: GGGAGUUCUACAGUCCGACGAUCGCUCAGUUCUUAAAAGUCUAUGACCUGGUAAAGGCUUACACAGACUUCCAAAAUAAUCAUAGCUCCCCAAAGCCAACAACUUUGAACACUGCUGGUGCCCCAGUGGUUGUUAUCUCUAAUCAACAGAGGAUUGAGCAUCA
B3: chr10:123051058:123051159:+|CDS|ENSG00000196177|unk|FALSE|unique (ssRNA)
RNA: GGGAGUUCUACAGUCCGACGAUCCAAGUGGCUCACGUGGCCACCCAGCUGGAAGCUGCAAGAUUACUAACAUACAAUGCUGCUAGGCUUUUAGAAGCUGGAAAGCCAUUCAUAAAAGAAGCGUCAAUGGCCAAAUACUAUGCACAACAGAGGAUUGAGCAUCA
B4: ENSG00000198589:be:win_1551|CDS|ENSG00000198589|bound_else_gene|NA|bound_elsewhere_windowed (ssRNA)
RNA: GGGAGUUCUACAGUCCGACGAUCACAGAUGCUUGCCUGUAAGGGCUUCUUGGUAAUAGGAUAUAGCCUUGAAAAGUCUUCCAAAUCUCAUGUUAGCAGAGCAGUACUUGAACUUUGCCUUGCAUUUUCAAAAUAUCUGAGUAACAACAGAGGAUUGAGCAUCA
B5: chr11:92354873:92354974:+|CDS|ENSG00000165323|unk|total|mutant (ssRNA)
RNA: GGGAGUUCUACAGUCCGACGAUCGUCACUCUUAAAGUUUUUUCCGAUGAUGUCAAUGACUGCUCCCCAGCUUUCAUUCCCAGCCGCUACCGUGUGAAGGUUCUUGAAGAUCUCCCUGUUGGCACUGUCAUUGCUUGGCUUGAGCAACAGAGGAUUGAGCAUCA
B6: ENSG00000070961:be:win_701|CDS|ENSG00000070961|bound_else_gene|NA|bound_elsewhere_windowed (ssRNA)
RNA: GGGAGUUCUACAGUCCGACGAUCACGAUCUUAAAAUUGAUGAAAGCUCAUUGACUGGUGAAUCAGAUCAUGUUAAAAAGUCUUUAGAUAAGGAUCCCUUACUUCUAUCAGGUACUCAUGUAAUGGAAGGCUCUGGAAGAAUGGCAACAGAGGAUUGAGCAUCA
B7: chr1:15430058:15430159:+|3pUTR|ENSG00000142634|msi1|FALSE|unique (ssRNA)
RNA: GGGAGUUCUACAGUCCGACGAUCCCUGGAAGCUACGCGGACUUGCAGAGGUUUUAUUUUUUGGCCUUAGAAUCUGCAGAAAUUAGGAGGCACCGAGCCCAGCGCAGCAGCCUCGGACCCGGAUUGCGUUUGCCUUAGCGGAUACAACAGAGGAUUGAGCAUCA
B8: chr5:144162273:144162391:-|CDS|ENSG00000145817|unk|total|mutant (ssRNA)
RNA: GGGAGUUCUACAGUCCGACGAUCCCCACCGGCUGGCAAAAUCCAGUUUGGCUAUGUAUACGGGAUCAGUGCAAUUGGAUGUCCCGGAAUGUUUUGUUUAUUAAACUUAAUGAGUAUGACAGGUGUUUCAUUUGGUUGUGUGGCCAACAGAGGAUUGAGCAUCA
B9: chr4:42087128:42087229:+|3pUTR|ENSG00000014824|msi1|total|mutant (ssRNA)
RNA: GGGAGUUCUACAGUCCGACGAUCAUUUUGUAUAAUACCGUUCAUACUGUGUCUGUGAGUUUCUUCAGUUACAAAUGGGCAUUCCGUACCGUUAUAUUGACUAUAACAUGUAAGUAAACCGCUUUCUACUGACCCUAAGUUAUCCAACAGAGGAUUGAGCAUCA
B10: chrX:115010634:115010735:-|CDS|ENSG00000123496|msi1|total|mutant (ssRNA)
RNA: GGGAGUUCUACAGUCCGACGAUCUGGAUCAUCAGAGAACAAGCCUAUCAGAUCCAGUUAUUUCACUUUUCAGCUUCAAAAUACCGGUGAUGUAAACCAACAAACAACUUCAAAUUCAUUGUUUCCCGUUCCGGCCAUUUACAACAACAGAGGAUUGAGCAUCA
B11: chr2:110123602:110123703:-|3pUTR|ENSG00000144061|unk|total|mutant (ssRNA)
RNA: GGGAGUUCUACAGUCCGACGAUCAUCCUCCACGAUUACGUGAAUAAAAUGAUGGAACCAAAAAUCACUGUCACUUUACAACUCCGGUUUUACUCUUUUCUUUCUACAGACCAUAUUUUUAAAGAAAUGUUUAUACAAUAAUUUCAACAGAGGAUUGAGCAUCA
B12: chr18:68676332:68676434:-|3pUTR|ENSG00000166479|msi1_unk|FALSE|overlapping (ssRNA)
RNA: GGGAGUUCUACAGUCCGACGAUCAUCAAGAUUAUGAGGUUAAAAAUAAUGUGGUUUUAUAUAGCAUAGUGGUUUUAUUUUGUUAGUUAUUUUUAAAGGAGAAGAAAUGUUACUUUUUAACUUUAUACUCAGUUGCAUUAUCAUCAACAGAGGAUUGAGCAUCA
B13: chr1:113128187:113128288:+|3pUTR|ENSG00000198799|unk|FALSE|unique (ssRNA)
RNA: GGGAGUUCUACAGUCCGACGAUCUCAUACUUAUUUUCAAUCCUAAGUGUUCUCCCAUGGGCAGCAGCACUUCUUGAGCUGUUUAGUACUGCCACACCUUUUUAUGUCUUUACUAUGUCAGCCUCUGAUCAUUUUCACUUUGAACAACAGAGGAUUGAGCAUCA
B14: chrX:8790794:8791172:-|three_prime_utr|ENSG00000183304|control|control|control (ssRNA)
RNA: GGGAGUUCUACAGUCCGACGAUCCAACUUGAGCUACAGUAAACUACAUGACAGUGUUUUGAUAAUUGUUGUAUAAAUCGGUAUAGCUCCUCUGUCACUUGUCUGUUAAAUGCCAGACCUCGUUUCUAUGAUCUGUUGAAUGAACAACAGAGGAUUGAGCAUCA
B15: chr6:36925625:36925726:+|3pUTR|ENSG00000198663|msi1|total|mutant (ssRNA)
RNA: GGGAGUUCUACAGUCCGACGAUCACUUCUCAAGUUAAUUUUGAUAAGCAGAAUCUACUACUGGCCAGAGCGACAGGAGUGGCCCGGGGUUGCCAGCCAGUCCCUUUCUGAUGAUCAAGGCCCUGCACAGCAGGAUGCCACAGGCAACAGAGGAUUGAGCAUCA
B16: chr15:99139316:99139576:-|CDS|ENSG00000103852|control|control|control (ssRNA)
RNA: GGGAGUUCUACAGUCCGACGAUCCUCUCAUUCAAGGGAGACCUUAGUUUCCUGCUCUCAGCGACACUUCCAUAGCCUCAUGAUAGCUGCUUGGUGUUCUACAGUGUCUCCAGAUCCAGACCCUCUUAUAUGGACCGCAGGACACAACAGAGGAUUGAGCAUCA
B17: chr12:442458:442559:+|3pUTR|ENSG00000120647|unk|total|mutant (ssRNA)
RNA: GGGAGUUCUACAGUCCGACGAUCCCUGAGCAGAGCCUGAAUUACGUUUUUGGGCAAUUUCAUGGUGUUUCACCAGAGGGCGCCCGAGACUCAAACGAAAUGUCCAUCUGGAAAGAUUCGGGAGACACUUUGCCGAGGGGAUGACAACAGAGGAUUGAGCAUCA
B18: chrX:52696895:52697518:-|three_prime_utr|ENSG00000241476|control|control|control (ssRNA)
RNA: GGGAGUUCUACAGUCCGACGAUCGAACGUGGUGACCUUUCACGAACAUGGGCAUGGCUGCGGACCCCUCGUCAUCAGGUGCAUAGCAAGUGAAAGCAAGUGUUCACAACAGUGAAAAGUUGAGCGUCAUUUUUCUUAGUGUGCCAACAGAGGAUUGAGCAUCA
B19: ENSG00000107863:be:win_651|CDS|ENSG00000107863|bound_else_gene|NA|bound_elsewhere_windowed (ssRNA)
RNA: GGGAGUUCUACAGUCCGACGAUCAGUUGAAAUAUCUCCUCCUGACUCAUCAUUGAGCAAACAGCAAACCAGUACACCAGUACUGACACAACCUGGUAGGGCCUAUAGAAUGGAAAUACAAGUGCCUCCAUCACCAACAGAUGUCAACAGAGGAUUGAGCAUCA
B20: chr5:72208420:72208520:+|3pUTR|ENSG00000131711|msi1_unk|FALSE|overlapping (ssRNA)
RNA: GGGAGUUCUACAGUCCGACGAUCCUCAUGAUCAUGACCUUUUUGGUAGUAUUCUUAAACAAAAUUCUACAGAGACUAAAUGUUAGCGAUGAUCCUCCAUUUUCAAUUUUAACCAAUUCUGUCCCCUUUCUCAAAACCCUGAGCCAACAGAGGAUUGAGCAUCA
B21: ENSG00000070961:be:win_2001|CDS|ENSG00000070961|bound_else_gene|NA|bound_elsewhere_windowed (ssRNA)
RNA: GGGAGUUCUACAGUCCGACGAUCAAAUGAUAUUGUCACCGGCCUUACAUGCAUUGCUGUUGUGGGGAUUGAAGAUCCUGUGAGACCUGAGGUGCCAGAUGCAAUUAAAAAGUGUCAGAGGGCUGGAAUUACUGUGCGGAUGGUCAACAGAGGAUUGAGCAUCA
B22: ENSG00000144554:stop:overlap|stop_codon|ENSG00000144554|stop_codon|NA|stop_codon (ssRNA)
RNA: GGGAGUUCUACAGUCCGACGAUCACGAAGUAAGUGCUGGAGAAAAGGAGCAAGAUAGUGAUGAGAGUUAUGAUGACUCUGAUUAGACCCCAGAUAAAUUGUUGCCUGCUUCUGUGUCUCUGCCAGCCUGUGAUCAUUUUGUGUCAACAGAGGAUUGAGCAUCA

Target: MSI1 full-length (mouse, UniProt Q61474 1-362)
Assay: nsRBNS (natural sequence RNA bind-n-seq); RBNS binding buffer (assumed for nsRBNS): 25 mM Tris pH 7.5, 150 mM KCl, 3 mM MgCl2, 0.01% Triton X-100, 500 ug/ml BSA, 20 U/ml SUPERase-In, 4 C; UNK is unkempt and MSI1 is Musashi-1; names of the RNAs are library labels; protein concentration not given here; high values mean tight binding

Chain of UniProt Q61474 (Q61474 whole entry): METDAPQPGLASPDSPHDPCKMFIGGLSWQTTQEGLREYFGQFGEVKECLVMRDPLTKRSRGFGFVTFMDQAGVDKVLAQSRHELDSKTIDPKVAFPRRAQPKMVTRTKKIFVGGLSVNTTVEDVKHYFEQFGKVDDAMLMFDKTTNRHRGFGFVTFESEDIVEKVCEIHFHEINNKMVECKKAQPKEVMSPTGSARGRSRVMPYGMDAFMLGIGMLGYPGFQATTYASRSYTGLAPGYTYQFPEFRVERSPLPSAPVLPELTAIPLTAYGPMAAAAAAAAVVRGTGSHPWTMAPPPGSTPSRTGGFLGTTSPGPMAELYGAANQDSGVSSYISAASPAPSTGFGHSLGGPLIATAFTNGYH

Binder | binding signal [enrichment R]
B1 | 0.501
B2 | 0.492
B3 | 0.368
B4 | 0.737
B5 | 0.763
B6 | 0.383
B7 | 0.989
B8 | 0.386
B9 | 0.454
B10 | 0.421
B11 | 1.92
B12 | 69.1
B13 | 0.557
B14 | 0.5
B15 | 0.463
B16 | 0.715
B17 | 0.346
B18 | 0.468
B19 | 0.531
B20 | 0.766
B21 | 0.416
B22 | 0.542
